Among the data in paper PMC12136788 are binding signal values, retold here.

B1: ENSG00000107863:be:win_1601|CDS|ENSG00000107863|bound_else_gene|NA|bound_elsewhere_windowed (ssRNA)
RNA: GGGAGUUCUACAGUCCGACGAUCAGGAUGAUAGACGAGGUAUUUGUGAAAGACCUAGGCAGCAAGAAAUUCAUAAAUCUUUUCGAGGUUCCAAUUUUACUGUGGCUCCAAGCGUUGUUAAUUCUGAUAACAGGCGAAUGAGUGCAACAGAGGAUUGAGCAUCA
B2: chr20:3649766:3649867:+|3pUTR|ENSG00000088812|unk|FALSE|bound_elsewhere (ssRNA)
RNA: GGGAGUUCUACAGUCCGACGAUCAAGUUCAAAGACUAACCUGUAGCAAUCAGACUUUCCAAAAGGGGGUUCUCCAUUUUUUGUAGUUUUGUCUAAAUUUUUAAUGACCAUUUCCUGGAAUCAGUUUAUUAUACUGAAAACUGGCAACAGAGGAUUGAGCAUCA
B3: chr2:65312585:65312700:-|3pUTR|ENSG00000198369|unk|total|mutant (ssRNA)
RNA: GGGAGUUCUACAGUCCGACGAUCUGGACCAGGGCCCGAAUGGGGAUUUCAGGUUUCUAUGAGCCUCCCCAUUACCCCUAAAGCCGAACAUUUUUUAAAUUGUGUUGCCACCACUUCUAAAAAUUCCGCAAUAUCCGAACCGGACAACAGAGGAUUGAGCAUCA
B4: chr5:122065063:122065164:-|3pUTR|ENSG00000113083|msi1|total|mutant (ssRNA)
RNA: GGGAGUUCUACAGUCCGACGAUCUCAACUGGCGGAUACCGCGGUACAUAUGAUCCUCCGCCACCAGGGCACAAGCUUACCAGCCGACAAUACAGACAGAGCUUUUGUUGAGCUGUAACUGAGCUAUGGAACCGCUUCUUUGAUCAACAGAGGAUUGAGCAUCA
B5: ENSG00000198589:be:win_1951|CDS|ENSG00000198589|bound_else_gene|NA|bound_elsewhere_windowed (ssRNA)
RNA: GGGAGUUCUACAGUCCGACGAUCAUGCUUUCUCUACGAGCAUUCUUGUUGAUGUUCAUUAAGCAAUUAGUGAUGAAGGAUUCUGGAGUAAAGGAAGAUGAAUUACAGGCCAUUCUUAAUUACCUACUGACUAUGCAUGAGGAUCAACAGAGGAUUGAGCAUCA
B6: chr17:4669773:4671531:-|three_prime_utr|ENSG00000141456|control|control|control (ssRNA)
RNA: GGGAGUUCUACAGUCCGACGAUCACUUCAUCGAUUGUCCCCCUGAUGAUGAGAAGCCACCACCUCCCACAGAGCCUGACUCCUAGCCAUCUUCUGCACCCCACUCUUUGUUUCCAAUAAAGUUAUGUCCUUAGAUAGCGACUGCAACAGAGGAUUGAGCAUCA
B7: chr2:37227669:37227839:-|CDS|ENSG00000115816|unk|FALSE|unique (ssRNA)
RNA: GGGAGUUCUACAGUCCGACGAUCGUUUACUUUUGCUUUUUUCGGACUUGUGUCAAAAAAAAAGAUGUUGAAUCAAAAAUGCUUAGCGCCCUUUUAACAGGUGUGAAUAGGGCAUACCCUUAUUCCCAGACUGGUGAUGACAAACAACAGAGGAUUGAGCAUCA
B8: chr11:36273890:36273991:-|3pUTR|ENSG00000110442|msi1|FALSE|unique (ssRNA)
RNA: GGGAGUUCUACAGUCCGACGAUCGGUGAAGAAGUGGGAAUAAUUGGAACUAAACAACAGUUCUAAAACUUCCAUGAUUUUUGUAGCUUCUUUUGUCCCCAAGUUGAAGCUUUUGGCCAGUACCUUCUCUAGUUUUUAAAGAUGCAACAGAGGAUUGAGCAUCA
B9: chr8:73241459:73241605:-|CDS|ENSG00000274443|control|control|control (ssRNA)
RNA: GGGAGUUCUACAGUCCGACGAUCUGGCUUCAGUGAUCCUCUCACUGGAGCACCAUCUCAAUACUUAGAGAGACUUUCCAAAAUAGCCAUAUUGGAAUAUGAUACCAUUCGUCAGGAAACAACCACAAAAUCAAAAAAAAGCAACAACAGAGGAUUGAGCAUCA
B10: chr1:24839915:24840022:+|CDS|ENSG00000169504|unk|total|mutant (ssRNA)
RNA: GGGAGUUCUACAGUCCGACGAUCACCCUGCAGAAACUGGAUGAAUAUCUGAAUUCUCCUCUCCCUGAUGAAAUUGAUGAAAACCGUAUGGAGGACAUAAAGUUUUCUACACGUAAAUUUCUGGAUGGCAAUGAAAUGACAUUACAACAGAGGAUUGAGCAUCA
B11: ENSG00000149257:stop:overlap|stop_codon|ENSG00000149257|stop_codon|NA|stop_codon (ssRNA)
RNA: GGGAGUUCUACAGUCCGACGAUCCCCUGCUAUUCAUUGGGCGCCUGGUCCGGCCUAAGGGUGACAAGAUGCGAGACGAGUUAUAGGGCCUCAGGGUGCACACAGGAUGGCAGGAGGCAUCCAAAGGCUCCUGAGACACAUGGGCAACAGAGGAUUGAGCAUCA
B12: chr11:27366961:27367062:-|3pUTR|ENSG00000205213|msi1|FALSE|unique (ssRNA)
RNA: GGGAGUUCUACAGUCCGACGAUCUGAAUACUUCCUAAUAUCGUUGGCUCUACUAAUAUUUUCCAAUUUGCUGGGAUGUCACCUAGCAAUAGCUUGGAUUAUAUAGAAAGUAAACUGUGGUCAAUACUUGCAUUUAAUUAGACGCAACAGAGGAUUGAGCAUCA
B13: chr3:25596636:25596694:+|3pUTR|ENSG00000077092|msi1_unk|FALSE|overlapping (ssRNA)
RNA: GGGAGUUCUACAGUCCGACGAUCUCCCCAGUACCUUCAGUUCCAGGAUUUAAAAUGCAAGAAAAAACAUUUUUACUGCUGCUUAGUUUUUGGACUGAAAAGAUAUUAAAACUCAAGAAGGACCAAGAAGUUUUCAUAUGUAUCCAACAGAGGAUUGAGCAUCA
B14: chr11:73401874:73401975:-|3pUTR|ENSG00000054965|unk|total|mutant (ssRNA)
RNA: GGGAGUUCUACAGUCCGACGAUCUGCAGGGUUUGUCCUUUACUUAUCUGCCCCUUUCCCCGAAAACUCCUCGUUUCUGAAAUCCGGCAUUAUAUGGUUCCAGGACCCAGCCUUCAAAAUUCCUGGCAGGCCAGCUUCAACAUUCAACAGAGGAUUGAGCAUCA
B15: chr11:113276847:113276948:+|3pUTR|ENSG00000149294|msi1|total|mutant (ssRNA)
RNA: GGGAGUUCUACAGUCCGACGAUCAGAAGGGAAAAGCCAGCCCUUUGUACCGAAAUUUUGCUUUUUUUUCCCUCAUUCUACUUCCGAACUGCAAGCUUGUGCACUGUGGAUGCGUGAAUAUUUCCGUGUGAAACGUGUUUUUGUCAACAGAGGAUUGAGCAUCA
B16: chr1:180885316:180885399:+|3pUTR|ENSG00000143324|msi1_unk|total|mutant (ssRNA)
RNA: GGGAGUUCUACAGUCCGACGAUCUUGGCAGCCAUUUCUCCCAGCAGUUUUAAAGGAUGAACAUUGGAUUUCAUGCCAUCCCACCGAAAACCUGUUUUAAAAUUUCCGGGAUCUUUACUUGGUCAUACAUGAAAAGUACACUGCCAACAGAGGAUUGAGCAUCA
B17: ENSG00000070961:be:win_2101|CDS|ENSG00000070961|bound_else_gene|NA|bound_elsewhere_windowed (ssRNA)
RNA: GGGAGUUCUACAGUCCGACGAUCGGAAUUACUGUGCGGAUGGUCACUGGUGAUAAUAUUAAUACUGCUCGGGCCAUUGCUACCAAAUGUGGUAUUUUACAUCCUGGGGAAGAUUUUCUGUGCCUAGAAGGUAAAGAUUUUAACCAACAGAGGAUUGAGCAUCA
B18: ENSG00000143476:stop:overlap|stop_codon|ENSG00000143476|stop_codon|NA|stop_codon (ssRNA)
RNA: GGGAGUUCUACAGUCCGACGAUCCAUACUUCCAUAGAAAGUCCCAGGAGGACUUCUGUGGUCCUGAACACUCAACAGAAUUAUAGAUUCUAAUCUGAGUGAGUUACUGAGCUUUGGUCCACUAAAACAAGCUGAGCUUUGGUCCAACAGAGGAUUGAGCAUCA
B19: chr1:110340924:110341033:+|CDS|ENSG00000162775|unk|total|mutant (ssRNA)
RNA: GGGAGUUCUACAGUCCGACGAUCUGCUGCCUGGACCCAUAUGCGGGGCUUCCCACUUGGUGGCCCAGAUCGACGCCUCCGAGCCGACUUUGCCGACACCGAACAUCGUUACCAGCAGCAGUAUCUGCAGCCUCUGCCCUUGACCAACAGAGGAUUGAGCAUCA
B20: chr12:123586815:123586897:+|5pUTR_CDS|ENSG00000086598|msi1_unk|FALSE|overlapping (ssRNA)
RNA: GGGAGUUCUACAGUCCGACGAUCGAAUCCAGUGGGAAAUACACAUUUGCUGCUCACAUGGAUGGAACAUACAAAUUUUGUUUUAGUAACCGGAUGUCCACCAUGACUCCAAAAAUAGUGAUGUUCACCAUUGAUAUUGGGGAGCAACAGAGGAUUGAGCAUCA
B21: chr12:907890:907991:+|CDS|ENSG00000060237|msi1|FALSE|bound_elsewhere (ssRNA)
RNA: GGGAGUUCUACAGUCCGACGAUCGCCUCCUGCCAUGACGUCCAGCAGGAAGGGCACAUUCACAGAUGACUUGCACAAGUUGGUAGACAAUUGGGCCCGAGAUGCCAUGAAUCUCUCAGGCAGGAGAGGAAGCAAAGGGCACAUCAACAGAGGAUUGAGCAUCA
B22: chr2:200823707:200823808:+|3pUTR|ENSG00000082153|msi1|total|mutant (ssRNA)
RNA: GGGAGUUCUACAGUCCGACGAUCUGAGUAACUUUGAUAAAGUUUUUCAUGCACAGGCAAAAUGUAUUCACCCGAUUUCUACGCCGUGAUCUGCUUUUACUUUGUAAUUUGCCGUUCUCAAAAGACUUUUUUUUAAAAAAAUAACAACAGAGGAUUGAGCAUCA

This is one part of the list.

The test concerns the target MSI1 full-length (mouse, UniProt Q61474 1-362). Description: nsRBNS (natural sequence RNA bind-n-seq); RBNS binding buffer (assumed for nsRBNS): 25 mM Tris pH 7.5, 150 mM KCl, 3 mM MgCl2, 0.01% Triton X-100, 500 ug/ml BSA, 20 U/ml SUPERase-In, 4 C; UNK is unkempt and MSI1 is Musashi-1; names of the RNAs are library labels; protein concentration not given here; high values mean tight binding.
UniProt Q61474, sequence (Q61474 whole entry): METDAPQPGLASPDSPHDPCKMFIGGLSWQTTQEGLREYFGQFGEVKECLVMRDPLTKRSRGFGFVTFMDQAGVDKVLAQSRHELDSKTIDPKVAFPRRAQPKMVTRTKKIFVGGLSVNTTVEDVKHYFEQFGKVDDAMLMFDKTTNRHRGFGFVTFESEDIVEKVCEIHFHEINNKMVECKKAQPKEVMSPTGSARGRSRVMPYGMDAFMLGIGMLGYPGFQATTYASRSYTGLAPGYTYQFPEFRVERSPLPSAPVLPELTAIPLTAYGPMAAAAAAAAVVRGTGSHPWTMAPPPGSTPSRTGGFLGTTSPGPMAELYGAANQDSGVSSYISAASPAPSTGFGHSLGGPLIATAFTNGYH
In turn, B1 displayed a binding signal of 0.495 enrichment R.

For B2, the binding signal was found to be 3.75 enrichment R.

In turn, B3 gave a binding signal of 0.277 enrichment R.

In turn, B4 returned a binding signal of 0.396 enrichment R.

B5: the binding signal is 0.339 enrichment R.

Consider B6, for which the binding signal was determined as 1.25 enrichment R.

As to B7, the binding signal was 0.227 enrichment R.

B8 gave a binding signal of 0.705 enrichment R.

For the molecule B9, the binding signal came out at 0.542 enrichment R.

B10: the binding signal worked out at 0.192 enrichment R.

The molecule B11 gave a binding signal of 0.828 enrichment R.

With B12, the binding signal was 0.875 enrichment R.

As to B13, the binding signal came out at 0.346 enrichment R.

B14 gave a binding signal of 0.588 enrichment R.

In turn, B15 came in with a binding signal of 0.205 enrichment R.

For B16, the binding signal is 0.166 enrichment R.

On to B17, for which the binding signal amounted to 0.362 enrichment R.

B18 gave a binding signal of 0.943 enrichment R.

B19 gave a binding signal of 0.403 enrichment R.

Consider B20, for which the binding signal came out at 0.443 enrichment R.

For the molecule B21, the binding signal is 0.44 enrichment R.

In the case of B22, the binding signal was found to be 0.312 enrichment R.
